Among all 310,000 compounds or so, about 14,000 (4.5%) showed an effect of 50% or more. The effect is printed as a negative number. The list shows a part of the results.
target: human ether-à-go-go-related gene (hERG) potassium channel (human, UniProt Q12809); test: primary screen, population patch clamp on CHO cells stably expressing hERG
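Note: peak tail current of the secondary pulse compared with the same well before compound.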

human ether-à-go-go-related gene (hERG) potassium channel, sequence (Q12809 whole entry, looked up): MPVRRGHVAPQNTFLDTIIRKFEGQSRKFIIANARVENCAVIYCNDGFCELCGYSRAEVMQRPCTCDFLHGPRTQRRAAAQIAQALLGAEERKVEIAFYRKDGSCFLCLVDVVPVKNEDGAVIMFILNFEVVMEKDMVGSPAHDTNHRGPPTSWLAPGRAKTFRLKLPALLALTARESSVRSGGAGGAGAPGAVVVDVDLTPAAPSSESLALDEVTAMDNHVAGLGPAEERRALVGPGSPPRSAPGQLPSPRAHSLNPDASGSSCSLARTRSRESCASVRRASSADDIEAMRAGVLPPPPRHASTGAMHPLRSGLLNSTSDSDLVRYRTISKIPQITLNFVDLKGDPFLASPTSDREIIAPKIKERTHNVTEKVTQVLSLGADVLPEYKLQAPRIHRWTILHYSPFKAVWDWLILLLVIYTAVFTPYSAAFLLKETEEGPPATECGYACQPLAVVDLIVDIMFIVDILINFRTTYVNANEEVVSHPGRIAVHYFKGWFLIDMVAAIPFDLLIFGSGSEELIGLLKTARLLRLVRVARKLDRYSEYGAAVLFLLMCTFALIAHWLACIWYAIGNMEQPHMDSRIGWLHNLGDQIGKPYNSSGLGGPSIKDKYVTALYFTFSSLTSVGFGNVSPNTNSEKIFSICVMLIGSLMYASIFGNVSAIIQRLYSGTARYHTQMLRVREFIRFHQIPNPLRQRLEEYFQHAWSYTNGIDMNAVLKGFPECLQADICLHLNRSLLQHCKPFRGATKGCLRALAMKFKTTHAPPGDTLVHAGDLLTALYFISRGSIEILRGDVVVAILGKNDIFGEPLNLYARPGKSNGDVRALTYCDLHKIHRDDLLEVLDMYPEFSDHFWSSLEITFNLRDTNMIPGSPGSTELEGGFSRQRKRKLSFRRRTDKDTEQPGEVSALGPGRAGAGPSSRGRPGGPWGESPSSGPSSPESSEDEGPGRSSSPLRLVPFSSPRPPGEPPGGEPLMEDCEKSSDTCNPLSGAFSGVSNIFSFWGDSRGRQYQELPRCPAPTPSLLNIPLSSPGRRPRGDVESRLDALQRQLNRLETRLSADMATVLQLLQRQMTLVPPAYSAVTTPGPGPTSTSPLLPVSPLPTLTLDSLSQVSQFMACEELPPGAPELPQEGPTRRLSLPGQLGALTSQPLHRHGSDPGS

SMILES | hERG current change (%, negative = inhibition) at 10uM [%]
Cc1cccn2c(CNCC3(c4ccccc4)CCCC3)c(C(=O)N3CCOCC3)nc12 | -10.1
COCc1cc(C)nc(SC)c1C#N | 16.1
Cc1ccc(Cn2cnc3c(nnn3Cc3ccc(Cl)cc3)c2=O)cc1 | 3.9
O=C(Nc1cccc(S(=O)(=O)N2CCOCC2)c1)c1ccc(Cl)c([N+](=O)[O-])c1 | 18
CCC(CC)C(=O)NCc1ccc(Cl)cc1 | 4.47
Cc1cc(C)cc(Oc2coc3cc(OC(=O)c4cccs4)ccc3c2=O)c1 | -0.857
Cc1ccc(C(=O)N2CCN(c3ccc([N+](=O)[O-])c(NCc4cccnc4)c3)CC2)cc1 | -59.4
CC1(C(=O)N2CC3(CC(c4cccc([N+](=O)[O-])c4)=NO3)C[C@H]2C(=O)NCC(N)=O)CC1 (stereo partly shown) | 4.52
Cc1ccc(NS(=O)(=O)c2ccc(NC(=O)C3CC3)cc2)c(C)c1 | 10.3
CCc1ccccc1NC(=O)c1ccccc1N1C(=O)C2C3C=CC(C3)C2C1=O (stereo not shown) | 18.3
Cc1cccc(N2C(=O)C3C(c4ccccc4)OC4(C(=O)c5ccccc5C4=O)C3C2=O)c1 (stereo not shown) | 14.9
COC(=O)C1=C(N)Oc2cc(C)n(Cc3cccnc3)c(=O)c2C1c1ccccc1OC (stereo not shown) | -7.68
CCC1(C)N=C(c2ccc3c(c2)OCO3)CC(c2ccccc2O)N1 (stereo not shown) | 2.42
O=C(NCc1ccc(F)cc1)c1cnc(Cl)c(Cl)c1 | -6.81
COc1ccc(OC)c(C(c2c(C)[nH][nH]c2=O)c2c(C)[nH][nH]c2=O)c1 | 31.1
Cc1ccc(NC(=S)NCC2CCN(C(C)c3ccccc3)C2)cc1C (stereo not shown) | -44.6
COc1ccccc1N1CCN(C(=O)c2ccc(CSc3ccccc3)cc2)CC1 | 2.7
O=C(COC(=O)/C=C/c1ccccc1[N+](=O)[O-])NCC1CCCO1 (stereo not shown) | 7.22
COc1ccc(/C=C2\S/C(=N/S(=O)(=O)c3cccs3)NC2=O)cc1 | 8.45
O=C(NCc1ccco1)c1cc([N+](=O)[O-])ccc1N1CCCCC1 | -40.5
CC(C)Cn1c(-c2ccco2)csc1=Nc1cccnc1 | 8.45
CC(C)C(=O)Nc1ccc(C(=O)N/N=C/c2cc(Br)cc(Br)c2O)cc1 | 0.959

SMILES | hERG current change (%, negative = inhibition) at 10uM [%]
CCOc1cc(C=C2C(=O)NC(=O)NC2=O)ccc1OCC(=O)N1CCOCC1 | 7.28
Nc1cc(S(=O)(=O)Nc2cc(Cl)ccc2Cl)ccc1N1CCCC1 | -0.665
COC(=O)C1=C(C)NC(=O)C1(NC(=O)c1cccnc1)C(F)(F)F (stereo not shown) | -13
Cc1ccc(NC(=O)N/C=C/c2ccc(Cl)cc2)cc1 | 22.7
Cc1ccc(C2C(C(=O)c3sc(C)nc3C)=C(O)C(=O)N2CCN2CCOCC2)o1 (stereo not shown) | 6.3
CC1(C)CC1C(=O)Nc1ccc([N+](=O)[O-])cc1Br (stereo not shown) | -9.3
COc1ccc(NC2=C(NC(C)=O)C(=O)c3ccccc3C2=O)cc1 | 13.5
COc1cc(-c2nnc(-c3cccs3)o2)cc(OC)c1OC | 21.8
CN1CCN(NC(=O)c2cccc(Br)c2)CC1 | -6.19
COc1ccc(N2CCN(S(=O)(=O)c3cnc[nH]3)CC2)cc1 | 4.1
O=C(O)c1cnn(-c2nc(-c3ccc(Br)cc3)cs2)c1C(F)(F)F | 18.9
O=C(NCC1CCCO1)C(c1ccc(N2CCOCC2)cc1)N(C(=O)Cn1nnc2ccccc21)c1ccccc1F (stereo not shown) | 5.36
O=C(O)c1cccc(N=C2NC(=O)C(CO)(CO)S2)c1 | 14.4
NC(=O)[C@@H]1CCCNc2c(I)cc([N+](=O)[O-])cc2C(=O)N[C@@H](CCC(=O)O)C(=O)N[C@@H](CO)C(=O)N1 | 6.26
CNc1nc(Nc2ccc([N+](=O)[O-])cc2)nc(OCC(F)(F)F)n1 | 4.67
Cc1ccc2c(c1)C1(OCCO1)C(=O)N2 | 10.4
CCCN1CCN(CCNC(=O)Nc2ccccc2Cl)CC1 | -6.78
CCOC(=O)[C@@H]1[C@H]2COc3ccccc3[C@H]2N2C(=O)N(c3ccc(OC)cc3)C(=O)[C@]12C | -2.02
COc1cccc(-c2nc(CS(=O)CC(=O)NCc3ccc4c(c3)OCO4)c(C)o2)c1 (stereo not shown) | -18
COCCN1C(=O)c2ccccc2C(C(=O)Nc2ccc3c(c2)OCCO3)C1c1ccc(F)cc1 (stereo not shown) | 17.1
Cc1ccccc1Nc1c(N)c(=O)oc2ccccc12 | -5.01
COc1cccc(/C(O)=C2/C(=O)C(=O)N(c3ccccn3)C2c2ccc(OC)c(OC)c2)c1 (stereo not shown) | 14.7

SMILES | hERG current change (%, negative = inhibition) at 10uM [%]
O=C(CSc1nnc(Cc2cccs2)n1Cc1ccco1)Nc1cccc(Cl)c1 | -13.9
Cc1ccc(CN2CCSc3ccc(C(=O)NCCCN4CCN(C)CC4)cc32)cc1 | -38.7
N#Cc1c(NC(=O)c2ccccc2)sc2c1CCC2 | -2.03
CC1CCCC(NC(=O)c2ccc(COc3ccccc3)o2)C1C (stereo not shown) | 0.0111
CCOC(=O)CN(C)Cc1cn(C)nc1-c1ccc(Oc2ccccc2)cc1 | -11.5
NNC(=O)c1sc(-c2ccccc2)cc1N | 9.7
CC(C)C(NC(=O)c1c(F)cccc1F)C(=O)N1CCN(c2ccccc2F)CC1 (stereo not shown) | -1.76
COCc1nnc(NC(=O)C2CC(=O)N(C3CCCC3)C2)s1 (stereo not shown) | 23.3
COc1ccc(CN(C(=O)c2ccco2)c2ccc(Br)cc2)cc1OC | -25.4
CC(Nc1nc(Nc2ccc(F)cc2)nc(SCC(N)=O)n1)c1ccccc1 (stereo not shown) | -5.05
Cc1ccc(-n2nnc3c(=O)n(Cc4ccccc4C)cnc32)cc1 | 16.3
COc1ccc(CN2CCN(C(=O)Cn3nc(C(=O)O)c4ccccc4c3=O)CC2)cc1F | -37.4
NNc1ccc2nnc(C(F)(F)C(F)(F)C(F)(F)F)n2n1 | 8.51
O=C(CN1CCN(S(=O)(=O)c2ccc(Cl)cc2)CC1)NC1CC1 | 1.82
O=C(/C=C/c1cc2c(cc1Br)OCO2)NCc1ccc(F)cc1 | -0.267
O=C(c1cc(F)c(F)cc1Cl)N1CCOCC1 | -9.19
N#Cc1cnn(Cc2ccccc2)c1N | 3.48
CSc1ccc(Cn2nnc(C(=O)Nc3ccc(C)c(C)c3)c2N)cc1 | -4.4
CSCCC(CO)NC(=O)OCc1ccccc1 (stereo not shown) | 2.83
Cc1cc2nc(/N=C(\N)NC(=O)N3c4ccccc4Sc4ccccc43)nc(C)c2cc1C | -38.9
CC(=O)c1ccccc1OCC(O)CN1CCN(c2ccccn2)CC1.Cl (stereo not shown) | -39
COc1ccccc1NC(=O)c1ccc(NC(=O)CSc2nnnn2C)cc1 | -5.4

SMILES | hERG current change (%, negative = inhibition) at 10uM [%]
CCCCN1C(=O)NC2NC(=O)NC21 (stereo not shown) | -6.63
CCCCN(C(=O)c1ccco1)c1nnc(-c2cc(OC)c(OC)c(OC)c2)s1 | -9.62
O=C(CSc1ccc2nnc(-c3cccnc3)n2n1)Nc1ccc(F)cc1F | -21.5
CCCC(C(=O)NC(C)(C)C)N(CCN1CCOCC1)C(=O)CNS(=O)(=O)c1ccccc1 (stereo not shown) | 17
O=C(Nc1nc(-c2ccc(-c3ccccc3)cc2)cs1)c1cnccn1 | -2.53
CCCC(=O)NCCc1cc(OC)c(OC)cc1Br | 5.13
CCOC(=O)N1CCN(C(=S)NC(C)(C)C)CC1 | -7.63
CN(C)C(=S)Nc1ccc2c(c1)OCCO2 | 5.41
CC(C)c1cc(Br)ccc1OCCCN1C(=O)NC(C)(C)C1=O | -17
COc1cc(OC)cc(C(=O)NCC(=O)OC2CCCCC2=O)c1 (stereo not shown) | -27.6
C/C(=N\NC(=O)c1cccc(Br)c1)c1ccc(Br)cc1 | 16
O=C(O)c1cccc(NC(=S)NC(NC(=O)c2ccco2)C(Cl)(Cl)Cl)c1 (stereo not shown) | 2.71
Cc1ccc(SCc2[nH]nc3c2C(c2ccc(C)o2)C(C#N)=C(N)O3)cc1 (stereo not shown) | 16
Cc1ccc(N=C2NC(=O)/C(=C\c3ccc(C)s3)S2)cc1 | 26.5
CC(C)[C@H](NC(=O)N1CCn2c1nc1ccccc12)C(=O)NC1CC1 | -29.6
Cc1cc(Cl)cc(C)c1OCCCCCn1ccnc1 | -28.1
Cc1ccc(N=C2NC(=O)CS2)cc1 | -1.52
C/C(=N\NC(=O)c1ccccc1C)c1ccc(N2CCOCC2)cc1 | 5.21
O=C(CC(CC(=O)c1ccc(Cl)cc1)c1ccccc1C(=O)O)c1ccc(Cl)cc1 | -4.11
CCCCN(CC)CCCNC(=O)c1cn(CC)c2ccc(S(=O)(=O)N3CCc4ccccc4C3)cc2c1=O | -74.9
O=C(c1cc(-c2ccc(Cl)cc2Cl)on1)N1CCOCC1 | -9.72
CC12CC(NC(=O)N1CCc1ccccc1)c1ccccc1O2 (stereo not shown) | 2.05
